# In PubChem BioAssay (NCATS):
# The inconclusive results got no clear call from the source; some entries with a clear call stand among them for comparison. Potencies of inconclusive entries are left out as doubtful fits. The source made the active and inactive calls. Calls come from the whole dose curve; as a rule, active = well fitted curve in the direction sought with a large enough effect; inconclusive = small, poorly fitted or top-dose-only effect, or another doubt; inactive = no such curve, though single readings can be large; an effect the other way counts as inactive or inconclusive.
# Assays:
# [1] = qHTS Screen of the MIPE 4.0 Collection Against Ewings Sarcoma (TC71) (AID 1259253); note: nearly all actives have a fitted effect of over 40% in size; note: potency is the fitted concentration of half-maximal effect
# How it was run: (§1)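 Cells plated in serum-containing RPMI (5% FBS) and treated with compound dilutions for 48 h. Readout luminescent viability; normalization relied on vehicle (no inhibition) and media-only columns (full inhibition).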
# [2] = qHTS Screen of the MIPE 4.0 Collection Against Ewings Sarcoma (TC32) (AID 1259256); settings: TC32 Ewing sarcoma viability, CellTiter-Glo, 48 h; viability (percent of control): at 45.8 µM (top of the series); note: nearly all actives have a fitted effect of over 45% in size; note: potency is the fitted concentration of half-maximal effect;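 for viability (percent of control): 100% = DMSO-treated cells and 0% = medium-only wells without cells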
# How it was run: as §1
# [3] = qHTS Screen of the MIPE 4.0 Collection Against Ewings Sarcoma (EW8) (AID 1259255); note: potency is the fitted concentration of half-maximal effect; nearly all actives have a fitted effect of over 35% in size
# How it was run: as §1
# [4] = Identifying Small Molecule Inhibitors of Pancreatic Cancer Stem Cells (SN12C, Spheroid) (AID 1259360); settings: Potency: SN12C spheroid viability; note: potency is the fitted concentration of half-maximal effect
# How it was run: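 Endpoint: ATP-based luminescence, 48 h drug exposure. Bortezomib at 9.2 uM final as full-kill control; DMSO vehicle as negative control; activity normalized between vehicle and cell-free wells.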
# [5] = Identifying Small Molecule Inhibitors of Pancreatic Cancer Stem Cells (A278, Adherent) (AID 1259361); settings: viability (% of control): at 46.1 µM (top of the series);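 note: viability read after 48 h compound exposure; nearly all actives have a fitted effect of over 35% in size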;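 for viability (% of control): 100% = DMSO-treated cells and 0% = cell-free media-only wells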
# How it was run: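 Pre-formed 14-day tumor spheroids or adherent cells dosed and incubated 48 h, 37C, 5% CO2. Viability assessed by CellTiter-Glo.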
# [6] = Identifying Small Molecule Inhibitors of Pancreatic Cancer Stem Cells (Panc1, Adherent) (AID 1259362); settings: Potency: viability; viability, % of control: at 46.1 µM (top of the series); note: potency is the fitted concentration of half-maximal effect;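 for viability, % of control: compound exposure lasted 48 h before the viability read; plate controls were DMSO-treated cells for no effect and cell-free media wells for full effect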
# How it was run: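 Adherent (2D) versus sphere (3D) formats; spheres generated 14 d in SCM beforehand. Compound transferred by pin tool after 4 h, 48 h incubation, CellTiter-Glo endpoint.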
# [7] = P-glycoprotein substrates identified in KB-8-5-11 adenocarcinoma cell line, qHTS therapeutic library screen (AID 1346987); note: potency is the fitted concentration of half-maximal effect; nearly all actives have a fitted effect of over 65% in size
# How it was run: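 In this qHTS, P-gp-rich KB-8-5-11 cells received library compounds across a concentration range. Viability was quantified by luminescence after 72 h at 37 degree C.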
# Tags give direction and shape of the fitted curve.
smiles,measurement,setting,value
CC(C)[C@]12O[C@@H]1[C@@H]1O[C@]13[C@]1(O[C@H]1C[C@@H]1C4=C(CC[C@@]13C)C(=O)OC4)[C@H]2O,Potency,[1],inactive
same,Potency,[2],inactive
Cc1cccc(C)c1NC(=O)CN1CCCC1=O,Potency,[2],"inconclusive [inhibitor, partial curve, poor fit]"
CC(C)(C)[C@]1(O)C[C@@H]2OC(=O)C[C@@]23C(=O)O[C@@H]2OC(=O)[C@H](O)C213 (stereo partly specified),Potency,[2],inactive
C[C@@H]1CC[C@H]2[C@@H](C)C(=O)O[C@@H]3O[C@@]4(C)CC[C@H]1[C@]32OO4,Potency,[1],active: 3.72 µM
same,Potency,[3],"inconclusive [inhibitor, partial curve, poor fit]"
same,Potency,[2],"inconclusive [inhibitor, single point]"
C[C@@H]1[C@@H](C(=O)C[C@H]2O[C@@H]3O[C@]4(C)CC[C@@H]5[C@H](C)CC[C@@H]([C@H]2C)[C@@]35OO4)O[C@@H]2O[C@]3(C)CC[C@H]4[C@H](C)CC[C@@H]1[C@@]24OO3,Potency,[1],active: 4.69 µM
same,Potency,[4],"inconclusive [cytotoxic, partial curve, poor fit]"
same,IC50 (viability decrease),[5],"inconclusive [cytotoxic, full curve]"
same,Potency,[6],"inconclusive [cytotoxic, full curve, poor fit]"
same,Potency,[7],"inconclusive [inhibitor, single point]"
CC1=C2C[C@@H]3[C@@H](CC=C4C[C@@H](O)CC[C@@]43C)[C@@H]2CC[C@]12O[C@H]1C[C@H](C)CN[C@H]1[C@H]2C,Potency,[1],"inconclusive [inhibitor, partial curve, poor fit]"
same,Potency,[2],"inconclusive [inhibitor, partial curve, poor fit]"
same,IC50 (viability decrease),[5],inactive
same,"viability, % of control",[6],inconclusive: 70.8%
